Assay results taken from PubChem BioAssay AID316 (DTP/NCI, 2004).
Inconclusive results and toxic doses are left out. The source holds more than one record for some entries. The list is limited to them. There may be further records. Values that stand side by side differ for a reason that is not stated; some may be repeats, others may stem from another dose, organism or construct than stated.

Test system: P1534 leukemia ip, CD2F1 mice, survival T/C
Experiment: NCI In Vivo Anticancer Drug Screen. Data for tumor model P1534 Leukemia (intraperitoneal) in CD2F1 (CDF1) mice
Conditions: endpoint: mean survival time, schedule: Q01DX001 (ip), vehicle: saline, higher = longer survival
Protocol: The antitumor activity of compounds was measured in mice bearing transplantable tumors. Survival or tumor size were measured and the results are expressed as the measurement made in the treated group (T) divided by the measurement made in the vehicle treated control group (C). The tumor model used in this assay is P1534 Leukemia (intraperitoneal) in CD2F1 (CDF1) mice

Structure (SMILES): CC[C@]1(O)C[C@H]2CN(CCc3c([nH]c4ccccc34)[C@@](C(=O)OC)(c3cc4c(cc3OC)N(C=O)[C@H]3[C@@](O)(C(=O)OC)[C@H](OC(C)=O)[C@]5(CC)C=CCN6CC[C@]43[C@@H]65)C2)C1
- T/C (dose: 2.5 mg/kg/injection): 124 % of control, 154 % of control, 184 % of control
- T/C (dose: 3.0 mg/kg/injection): 111 % of control and 164 % of control
